# The other results are listed elsewhere or left out.
# Key:
# Assay in all cases: glycan array binding signal (z-score within array); higher = stronger binding
# Conditions in all cases: glycan notation: IUPAC condensed, linker removed
# [1] = target: Fuc(a1-2)Gal(b1-4)GlcNAc(b1-3)Gal(b1-4)GlcNAc(b1-3)Gal(b1-4)GlcNAc
# How it was run: (§1)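 The binding signal is a Z-score computed within each array. Data were drawn from 3228 arrays in the Consortium for Functional Glycomics database, restricted to those with a known protein sequence. Scores were averaged over arrays of the same protein sequence at different concentrations or buffers, and over linkers, and negative values can be taken as non-binding.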
# [2] = target: Fuc(a1-2)Gal(b1-4)GlcNAc(b1-3)GalNAc
# How it was run: as §1
# [3] = target: Fuc(a1-2)Gal(b1-4)GlcNAc(b1-3)[Fuc(a1-2)Gal(b1-4)GlcNAc(b1-6)]GalNAc
# How it was run: as §1
# [4] = target: Fuc(a1-2)Gal(b1-4)GlcNAc(b1-3)[Fuc(a1-3)[Gal(b1-4)]GlcNAc(b1-6)]Gal(b1-4)Glc
# How it was run: as §1
# [5] = target: Fuc(a1-2)Gal(b1-4)GlcNAc(b1-6)GalNAc
# How it was run: as §1
# [6] = target: Fuc(a1-2)Gal(b1-4)GlcNAc6S
# How it was run: as §1
# [7] = target: Fuc(a1-2)Gal(b1-4)[Fuc(a1-3)]GlcNAc
# How it was run: as §1
# [8] = target: Fuc(a1-2)Gal(b1-4)[Fuc(a1-3)]GlcNAc(b1-2)Man(a1-3)[Fuc(a1-2)Gal(b1-4)[Fuc(a1-3)]GlcNAc(b1-2)Man(a1-6)]Man(b1-4)GlcNAc(b1-4)[Fuc(a1-6)]GlcNAc
# How it was run: as §1
# [9] = target: Fuc(a1-2)Gal(b1-4)[Fuc(a1-3)]GlcNAc(b1-2)[Fuc(a1-2)Gal(b1-4)[Fuc(a1-3)]GlcNAc(b1-4)]Man(a1-3)[Fuc(a1-2)Gal(b1-4)[Fuc(a1-3)]GlcNAc(b1-2)Man(a1-6)]Man(b1-4)GlcNAc(b1-4)GlcNAc
# How it was run: as §1
# [10] = target: Fuc(a1-2)Gal(b1-4)[Fuc(a1-3)]GlcNAc(b1-3)Gal(b1-4)[Fuc(a1-3)]GlcNAc
# How it was run: as §1
# [11] = target: Fuc(a1-2)Gal(b1-4)[Fuc(a1-3)]GlcNAc(b1-3)Gal(b1-4)[Fuc(a1-3)]GlcNAc(b1-3)Gal(b1-4)[Fuc(a1-3)]GlcNAc
# How it was run: as §1
# [12] = target: Fuc(a1-2)Gal(b1-4)[Fuc(a1-3)]GlcNAc(b1-3)GalNAc
# How it was run: as §1
# [13] = target: Fuc(a1-2)Gal(b1-4)[Fuc(a1-3)]GlcNAc(b1-3)[Neu5Ac(a2-6)Gal(b1-4)GlcNAc(b1-6)]Gal(b1-4)Glc
# How it was run: as §1
# [14] = target: Fuc(a1-2)Gal3S(b1-4)GlcNAc
# How it was run: as §1
# [15] = target: Fuc(a1-2)Gal6S(b1-3)GlcNAc
# How it was run: as §1
# [16] = target: Fuc(a1-2)Gal6S(b1-3)GlcNAc6S
# How it was run: as §1
# Fuc(a1-2)Gal6S(b1-4)Glc = target: Fuc(a1-2)Gal6S(b1-4)Glc
# How it was run: as §1
# [17] = target: Fuc(a1-2)Gal6S(b1-4)Glc6S
# How it was run: as §1
# Fuc(a1-2)[Gal(a1-3)]Gal = target: Fuc(a1-2)[Gal(a1-3)]Gal
# How it was run: as §1
# [18] = target: Fuc(a1-2)[Gal(a1-3)]Gal(b1-3)GalNAc
# How it was run: as §1
# [19] = target: Fuc(a1-2)[Gal(a1-3)]Gal(b1-3)GalNAc(b1-3)Gal(a1-4)Gal(b1-4)Glc
# How it was run: as §1
# [20] = target: Fuc(a1-2)[Gal(a1-3)]Gal(b1-3)GlcNAc
# How it was run: as §1
# [21] = target: Fuc(a1-2)[Gal(a1-3)]Gal(b1-3)GlcNAc(b1-2)Man(a1-3)[Fuc(a1-2)[Gal(a1-3)]Gal(b1-3)GlcNAc(b1-2)Man(a1-6)]Man(b1-4)GlcNAc(b1-4)GlcNAc
# How it was run: as §1
# [22] = target: Fuc(a1-2)[Gal(a1-3)]Gal(b1-3)GlcNAc(b1-2)Man(a1-3)[Fuc(a1-2)[Gal(a1-3)]Gal(b1-3)GlcNAc(b1-2)Man(a1-6)]Man(b1-4)GlcNAc(b1-4)[Fuc(a1-6)]GlcNAc
# How it was run: as §1
# [23] = target: Fuc(a1-2)[Gal(a1-3)]Gal(b1-3)GlcNAc(b1-3)GalNAc
# How it was run: as §1
# [24] = target: Fuc(a1-2)[Gal(a1-3)]Gal(b1-3)GlcNAc(b1-6)GalNAc
# How it was run: as §1
# [25] = target: Fuc(a1-2)[Gal(a1-3)]Gal(b1-4)Glc
# How it was run: as §1
# [26] = target: Fuc(a1-2)[Gal(a1-3)]Gal(b1-4)GlcNAc
# How it was run: as §1
# [27] = target: Fuc(a1-2)[Gal(a1-3)]Gal(b1-4)GlcNAc(b1-2)Man
# How it was run: as §1
# [28] = target: Fuc(a1-2)[Gal(a1-3)]Gal(b1-4)GlcNAc(b1-2)Man(a1-3)[Fuc(a1-2)[Gal(a1-3)]Gal(b1-4)GlcNAc(b1-2)Man(a1-6)]Man(b1-4)GlcNAc(b1-4)GlcNAc
# How it was run: as §1
binder,measurement,setting,value
FimA-N3 (Actinomyces oris) (protein) MHHHHHHSSGVDLGTENLYFQSNAGLQGAQFQLYKAKNAYANTCSNEKEGAPIAINGQTTLTTDAQGAIDIKGLFISDSIDGADRDNQVNAMERCYVLVETKAPAGYVLPAGNGAATPVKVKAGEETTDN,glycan array binding signal (z-score),[1],-0.516
same,glycan array binding signal (z-score),[2],-0.148
same,glycan array binding signal (z-score),[3],-0.491
same,glycan array binding signal (z-score),[4],-0.114
same,glycan array binding signal (z-score),[5],0.198
same,glycan array binding signal (z-score),[6],-0.496
same,glycan array binding signal (z-score),[7],-0.292
same,glycan array binding signal (z-score),[8],0.027
same,glycan array binding signal (z-score),[9],-0.135
same,glycan array binding signal (z-score),[10],-0.115
same,glycan array binding signal (z-score),[11],-0.108
same,glycan array binding signal (z-score),[12],-0.639
same,glycan array binding signal (z-score),[13],-0.472
same,glycan array binding signal (z-score),[14],-0.216
same,glycan array binding signal (z-score),[15],0.001
same,glycan array binding signal (z-score),[16],0.505
same,glycan array binding signal (z-score),Fuc(a1-2)Gal6S(b1-4)Glc,-0.047
same,glycan array binding signal (z-score),[17],0.307
same,glycan array binding signal (z-score),Fuc(a1-2)[Gal(a1-3)]Gal,1.16
same,glycan array binding signal (z-score),[18],-0.19
same,glycan array binding signal (z-score),[19],-0.425
same,glycan array binding signal (z-score),[20],-0.258
same,glycan array binding signal (z-score),[21],-0.378
same,glycan array binding signal (z-score),[22],-0.364
same,glycan array binding signal (z-score),[23],-0.516
same,glycan array binding signal (z-score),[24],0.125
same,glycan array binding signal (z-score),[25],-0.016
same,glycan array binding signal (z-score),[26],-0.557
same,glycan array binding signal (z-score),[27],-0.344
same,glycan array binding signal (z-score),[28],-0.35

# From the supplement of paper PMC8728848
